# Results reported in paper PMC6919601, “Identification of Plasmodium dipeptidyl aminopeptidase allosteric inhibitors by high throughput screening” (PLoS ONE, 2019).
# Screen size: about 110,000 compounds; about 230 (0.21%) showed an effect of 50% or more. The list shows a part of the results.
# Biological target: DPAP1 (Plasmodium falciparum, UniProt Q8IIJ9)
# Test: primary screen, percent inhibition; read by cleavage of a fluorogenic dipeptide substrate; higher = more effect of the substance
# Design: species or system P. falciparum D10 trophozoite lysates; single well
# 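Note: 30 min substrate incubation versus DMSO and 10 µM JCP410 controls.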
# Chain of DPAP1 (Q8IIJ9 whole entry, looked up): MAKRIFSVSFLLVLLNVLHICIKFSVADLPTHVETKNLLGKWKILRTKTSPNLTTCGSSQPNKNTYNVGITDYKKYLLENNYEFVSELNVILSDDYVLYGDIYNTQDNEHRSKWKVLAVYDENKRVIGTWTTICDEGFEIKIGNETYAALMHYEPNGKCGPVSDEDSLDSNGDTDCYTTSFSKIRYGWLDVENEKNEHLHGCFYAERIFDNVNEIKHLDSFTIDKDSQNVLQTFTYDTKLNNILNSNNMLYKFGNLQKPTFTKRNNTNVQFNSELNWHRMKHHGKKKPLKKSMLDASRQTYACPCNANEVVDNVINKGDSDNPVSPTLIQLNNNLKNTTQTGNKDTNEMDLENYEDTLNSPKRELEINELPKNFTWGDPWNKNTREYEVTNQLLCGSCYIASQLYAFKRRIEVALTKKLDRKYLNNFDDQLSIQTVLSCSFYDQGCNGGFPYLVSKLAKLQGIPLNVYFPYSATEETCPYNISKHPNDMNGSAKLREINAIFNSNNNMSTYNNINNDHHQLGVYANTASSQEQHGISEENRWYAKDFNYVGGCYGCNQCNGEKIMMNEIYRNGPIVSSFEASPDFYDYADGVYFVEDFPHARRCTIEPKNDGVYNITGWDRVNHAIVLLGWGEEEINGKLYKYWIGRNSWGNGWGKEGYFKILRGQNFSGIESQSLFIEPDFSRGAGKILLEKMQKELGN
row,SMILES,% Inhibition @ 10 uM [%]
1,CCN(CC)CCSc1nc(O)c(C)c(O)n1,-7.46
2,COc1ccc(C2C3=C(Nc4ncnn42)c2ccccc2OC3c2ccccc2OC)cc1 (stereo not drawn),-1.62
3,CCc1ccccc1N(CC(=O)NC(C)c1ccccc1)S(C)(=O)=O (stereo not drawn),-5.67
4,O=C(CNS(=O)(=O)c1cc(Cl)ccc1Cl)Nc1ccc2c(c1)OCCO2,-4.14
5,COCCCN(Cc1ccco1)C(=O)c1oc(=O)c2ccccc2c1-c1ccccc1,-6.67
6,CCOC(=O)C1=C(C)NC(=O)NC1c1c(O)ccc2ccccc12 (stereo not drawn),-2.03
7,COc1ccc(-c2cc(C(F)F)n3ncc(C(=O)NCc4cnn(C)c4C)c3n2)cc1,-3.53
8,CC1CN(C(=O)Cn2cc(S(=O)(=O)Cc3ccccc3Cl)c3ccccc32)CC(C)O1 (stereo not drawn),1.66
9,O=C1NN=C(Cc2ccccc2)C1c1ccccc1 (stereo not drawn),-1.65
10,COCCNc1nc2c(S(=O)(=O)c3ccccc3)nnn2c2ccccc12,-10.5
11,CC(CN(C)CCN(C)C)c1ccccc1 (stereo not drawn),-2.02
12,O=[N+]([O-])c1ccc(N2CCN(Cc3ccc(Cl)cc3Cl)CC2)cc1,1.55
13,CC(C)(CO)Nc1cnc(O)nc1O,0.032
14,CC1CCCCN1C(=O)c1cc2nc(-c3cccs3)cc(C(F)(F)F)n2n1 (stereo not drawn),-1.99
15,O=C1CC(c2cccc(Oc3ccccc3)c2)C2=C(CC(c3cccs3)CC2=O)N1 (stereo not drawn),-2.24
16,CCCOc1cccc(OCC(=O)Nc2ccc(Br)cc2)c1,3.66
17,Cc1cccn2c(=O)c3cc(C(=O)NC4CCCCC4)c(=N)n(CCN4CCOCC4)c3nc12,1.97
18,O=C(O)Cn1c(SCc2ccccc2)nc2ccccc21,4.66
19,Cc1ccc(CNCc2c(C(=O)O)n(Cc3ccc(Cl)cc3)c3ccccc23)o1,0.335
20,COCCNc1ncnc2c1cnn2-c1ccc(C)cc1C,8.64
21,Cn1c(NC(=O)Cn2nc(C(F)(F)F)cc2C2CC2)nc2ccccc21,-0.545
22,COc1ccc(-n2cc(Cl)nc(N3CCOCC3)c2=O)cc1,1.43
23,C=CCn1c(=O)c(C(=O)Nc2nccs2)c(O)c2ccccc21,-1.96
24,COC(=O)c1c[nH]n2c(NC3CCCCC3)c(-c3cccc(C)c3)nc12,5.89
25,CC(C)C[C@H](NC(=O)c1ccc(-c2ccccc2Cl)c(Cl)c1)C(=O)NCC#N,-3.48
26,Cc1ccc2c(c1)C(=O)N(Cc1ccc3c(c1)OCO3)C2=O,-10.3

row,SMILES,% Inhibition @ 10 uM [%]
1,CCOc1ccc(NC(=O)CCC2CCCC2)cc1,7.48
2,OC(CN1CCCCC1)Cn1c2c(c3ccccc31)CCCC2 (stereo not drawn),3.32
3,c1ccc2c(CNc3ccc4c(c3)OCO4)c3ccccc3cc2c1,-3.6
4,COc1ccc(CCNC(=O)CN(C)S(=O)(=O)c2ccc(Br)s2)cc1OC,-1.29
5,CCOC(=O)N1CCC(NC(C)c2cccc3ccccc23)CC1 (stereo not drawn),0.472
6,COc1ccc(OC)c(S(=O)(=O)Nc2cc(OC)c(Cl)cc2OC)c1,5.03
7,O=C(NC1CCCC1)c1ccc(CS(=O)c2ccc(Cl)cc2)o1 (stereo not drawn),-4.96
8,CCN(CC)c1ccc(NC(=O)COc2ccc(C)cc2)c(C)c1,3.48
9,COc1cc(Cc2nnc(C(=O)NCCC(C)C)o2)cc(OC)c1OC,0.454
10,CCOC(=O)C1=CN(C(C)C)C=C(C(=O)OCC)C1c1ccc(OC)c(Br)c1,-5.05
11,Cc1cc(=O)n2nc(N3CCCC(C(=O)NCc4ccccc4Cl)C3)sc2n1 (stereo not drawn),-2
12,Cc1ccc2nc(-c3ccc(NC(=O)/C=C\C(=O)O)cc3)sc2c1,1.64
13,Cc1ccc(S(=O)(=O)NCc2ccc(C(=O)N3CCN(c4ccccn4)CC3)cc2)cc1,-3.35
14,COc1ccc2[nH]c(C(=O)O)c(CCC(=O)O)c2c1,0.0539
15,COc1ccc(Br)cc1/C=C/C(=O)N1CCN(c2ccc([N+](=O)[O-])cc2Cl)CC1,3.24
16,COc1ccccc1CN(Cc1ccccc1)CC1CCCCC1=O (stereo not drawn),-0.807
17,COc1ccccc1-c1c(C)nn2c(SCC(=O)NCCN(C)C)cc(C)nc12,-7.22
18,N#Cc1nc(/C=C/c2ccc(F)cc2)oc1N1CCCC1,2.54
19,CC(C)c1ccccc1NC(=O)c1ccncc1,2.43
20,CC(=O)N1CCC(N2CCN(c3ccccc3F)CC2)CC1,4.51
21,CC(C)OCCCNC(=O)c1cc(Sc2ccc(F)cc2)nc2ccccc12,4.36
22,COc1ccc(CNS(=O)(=O)c2ccc3[nH]c4c(c3c2)CCCCC4)cc1,2.52
23,Nc1ncc(Br)cc1S(=O)(=O)NCCC(=O)NCc1ccccn1,5.53
24,CCCC1=NN(C(=O)c2ccccc2)C(O)(C(F)(F)F)C1 (stereo not drawn),7.16
25,COc1ccc(C(=O)NCc2ccc(Cl)c(Cl)c2)cc1,-1.61
26,COc1cc(CN2CCN(Cc3ccc4ccccc4c3)CC2)cc2c1OCO2,-5.3

row,SMILES,% Inhibition @ 10 uM [%]
1,CC(C)N1CC2=C(OC(N)=C(C#N)C2c2ccc(F)cc2)/C(=C/c2ccc(F)cc2)C1 (stereo not drawn),-0.759
2,Cc1ccc(C(=O)O/N=C(\N)c2ccccn2)cc1Cl,-6.86
3,O=C(O)C#CCN1C(=O)c2ccccc2C1=O,6.24
4,Cc1ccc2oc(=O)c3cc(C(=O)N4CCc5ccccc5C4)sc3c2c1,-6.23
5,COc1cc2c(cc1/C=C1/S/C(=N\c3ccccc3)N(Cc3cccnc3)C1=O)OCO2,-11
6,COc1ccc(-c2cc(C(=O)NCc3cccnc3)[nH]n2)cc1,0.44
7,CC(C)(C)C(/C=C/c1ccc(Cl)cc1Cl)n1nnnc1CN1CCOCC1 (stereo not drawn),-1.63
8,CC(C)C[C@H](N[C@@H](C(=O)NC(C)C)c1ccc(-c2ccc(S(C)(=O)=O)cc2)cc1)C(=O)NCC#N,0.173
9,COCCNS(=O)(=O)c1cc(-c2onc(C)c2C)ccc1OC,5.5
10,O=C(CCn1cccn1)NC1CCCc2ccccc21 (stereo not drawn),-3.41
11,COc1ccc(C2N3CCCN23)cc1Br (stereo not drawn),-6.67
12,COC(=O)c1c(NC(=O)Cc2coc3cc(C)cc(C)c23)sc2c1CCCC2,4.18
13,Cc1c(Br)c(C(=O)NC23CC4CC(CC(C4)C2)C3)nn1C,2.39
14,N#C/C(=C\c1ccco1)c1nc(-c2ccc(Cl)c(Cl)c2)cs1,4.12
15,CC(C)C(=O)NCCc1nc2ccccc2n1Cc1ccccc1,3.24
16,CCOc1ccc(NC(=O)CSc2nc3ccccc3s2)cc1,-6.35
17,CCOC(=O)/C(C#N)=C/c1c(Oc2ccccc2OC)nc2c(C)cccn2c1=O,-5.1
18,Nc1nonc1C(=O)NCCNCc1cccc(OCc2ccc(Cl)cc2)c1,3.36
19,COc1ccc(/C=C/C2=NC(=C\c3cccc(OC)c3OC)/C(=O)O2)cc1,5.79
20,Cc1nc(O)nc(O)c1CCOc1ccccc1,4.19
21,CCOc1ccc(C=C2C(=O)NC(=S)NC2=O)cc1,1.91
22,CCOc1ccccc1NC(=O)c1ccccc1C,0.135
23,c1ccc(C2=C(CN3CCCCC3)C(c3ccccc3)c3ccccc3O2)cc1 (stereo not drawn),-2.63
24,CCOc1ccccc1-n1nnc(-c2nc(-c3ccc(OC)cc3)no2)c1N,1.13
25,O=C1CCCC2=C1C(c1cccc(O)c1)C1=C(CCCC1=O)O2,-9.12
26,C#CCN1C(=O)S/C(=C/c2ccc(OCC(N)=O)c(OC)c2)C1=O,-2.46

row,SMILES,% Inhibition @ 10 uM [%]
1,N#Cc1c(/N=C/c2ccccc2)sc2c1CCCC2,13.2
2,CCc1nc(N2CCCC2)ncc1C(=O)O,-1.11
3,CCN(CCCNC(=O)C1CCN(S(=O)(=O)c2cccc3nonc23)CC1)Cc1ccccc1,-0.0508
4,CCc1cc(CC#N)c(S(=O)(=O)CC)s1,-2.62
5,COc1ccc(CN2CCN(Cc3cc(OC)ccc3OC)CC2)cc1,2.37
6,Cc1cc(/C=C2\SC(=O)N(CC(=O)O)C2=O)c(C)n1-c1ccc(C(C)(C)C)cc1,-3.41
7,S=C1C=C(c2ccccc2)Sc2ccccc2N1,-1.43
8,Cc1cc(OCC(=O)O)cc(C)c1Cl,4.1
9,O=C(CCCCN1CCCCC1)Nc1nc(-c2ccccc2)cs1,-4.24
10,C/C(CCC1CC(C)OC1=O)=N\NC(N)=S (stereo not drawn),-1.6
11,CCNC(=O)/C(=C\c1ccc2c(c1)OCO2)NC(=O)c1ccccc1Cl,-0.941
12,O=C(CSc1nc2c(c(=O)n1Cc1ccccc1)SCC2)N1CCOCC1,0.842
13,Cc1nc([N+](=O)[O-])cn1-c1cccc(O)c1,-5.68
14,COc1ccc2nc(O)c3c(c2c1)OC(C)(C)C=C3,-2.42
15,CN(Cc1ccccc1)Cc1ccc(O)cc1,-1.78
16,O[C@]12CCCC[C@@H]1[C@@H](c1ccccc1Cl)NCC2,4.73
17,Cc1cc(-c2ccc(C)c(S(=O)(=O)N(Cc3ccccc3)C(C)(C)C)c2)on1,-5.5
18,COc1cc(S(=O)(=O)Nc2ccccn2)ccc1Br,3.36
19,CC(=O)c1cccc(NC(=O)c2cnn(-c3ccccc3)c2-c2ccccc2)c1,-3.71
20,CCOC(=O)N1CCC(N2CCN(c3ccc(OC)cc3)CC2)CC1,3.48
21,CC(CCNS(=O)(=O)c1csc(C(N)=O)c1)N1CCCCCC1 (stereo not drawn),0.00978
22,Cc1nc2sccn2c(=O)c1S(=O)(=O)NCCN1CCOCC1,-0.822
23,O=C(CN(c1ccc(F)cc1)S(=O)(=O)c1ccc2c(c1)OCCO2)NCc1cccnc1,-1.51
24,COc1ccc(Cc2nnc(NCc3ccco3)nc2O)cc1,-2.04
